We go through one molecule from the supplement of paper PMC8728848.

Some of the results follow.

What all share (test): glycan array binding signal (z-score within array); higher = stronger binding
Holding throughout (details): glycan notation: IUPAC condensed, linker removed; mutation: I144G

Assay [1] concerns the target Neu5Gc(a2-8)Neu5Gc(a2-3)Gal(b1-4)GlcNAc(b1-3)Gal(b1-4)GlcNAc. The method, boiled down: (§1)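 The Consortium for Functional Glycomics database supplied 3228 glycan arrays, of which those lacking an available protein sequence were dropped. The binding signal, a within-array Z-score, was averaged across arrays of the same protein sequence and across linkers. Negative scores can be read as non-binding.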

For assay [2], the target named is Neu5Gc(a2-8)Neu5Gc(a2-6)Gal(b1-4)GlcNAc. A digest of the protocol: as §1
Assay [3] addresses Neu5Gc(b2-6)Gal(b1-4)GlcNAc. A digest of the protocol:
as §1

B1: rAAL-I144G (Agrocybe aegerita), Q6WY08 (protein)
chain: MQGVNIYNISAGTSVDLAAPVTTGDIVTFFSSALNLNAGAGNPNNTTLNLFAENGAYLLHIAFRLQENVIIFNSRQPDGPWLVEQRVSDVANQFAGIDGKAMVTVFDHGDKYQVVINEKTVIQYTKQISGLTLSLSYNATEETSGFSTVVEAVTYTGLALEHHHHHH
B1: the “glycan array binding signal (z-score)” value is 0.018 in assay [1], -0.126 in assay [2] and -0.076 in assay [3].
